According to PubChem BioAssay AID493208 (National Center for Advancing Translational Sciences (NCATS), 2011):
The campaign covered roughly 44,000 compounds. About 340 (0.77%) were called active. About 5% were inconclusive and are not listed. Calls come from the whole dose curve; as a rule, active = well fitted inhibition curve with a large enough effect; inconclusive = small, poorly fitted or top-dose-only effect; inactive = flat fitted curve, though single readings scatter. This is one part of the list.

Assay: Acumen qHTS Assay for Inhibitors of the mTORC1 Signaling Pathway in MEF (Tsc2-/-, p53-/-) Cells: Sytravon;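 note: plate controls were DMSO for no effect and rapamycin for full effect; nearly all actives have a fitted effect of over 50% in size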
Details: phospho-rpS6 immunofluorescence/PI, 24 h; series mostly up to 38.3 µM; activity change, negative = inhibition: at the top concentration
Summary of the method: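 Read-out: phospho-S6 Alexa-488 intensity over PI intensity per well, scored as % active cells using thresholds from rapamycin (7.5 nM) and DMSO controls. Tsc2-/-, p53-/- MEFs exposed to compound for 24 h; PI cell count recorded as viability.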

Activity change, negative = inhibition, inactive:
CCN(CC)S(=O)(=O)c1ccc2c(c1)N(CC(=O)NCc1ccccc1)C(=O)C1CCCCN21 (stereo unspecified) 0%
O=C(NCCc1csc(-c2cccnc2)n1)c1cccc(Cl)c1 2.21%
CCOc1ccc(CC(=O)NCCc2sc3nc(-c4ccc(F)cc4)nn3c2C)cc1 -4.28%
Cc1ccccc1Cn1c(SCc2ccc(C(=O)NC3CCCCC3)cc2)nc2ccncc21 -1.21%
Cc1nc(SCc2cccc(Cl)c2)nc2c1CCCC2 -0.0966%
CC(C)N(Cc1nc(-c2ccc(Cl)cc2)no1)C(=O)c1ccc(C(C)(C)C)cc1 -5.45%
CC1=C(c2ccc(Cl)cc2)S(=O)(=O)N=C1N1CCN(c2cccc(C)c2C)CC1 3.81%
Cc1cccc(NC(=O)CSc2nc3ccc(NC(=O)c4ccccc4)cc3s2)c1 -9.81%
COc1cccc(CN2C(=O)c3ccccc3Sc3ccc(C(=O)OCc4ccco4)cc32)c1 -2.26%
Cc1ccc(CNc2nnc(C)c3nnn(Cc4ccc(F)cc4)c23)cc1 2.85%
CC(=O)N1c2ccc(S(=O)(=O)N3CCCCCC3)cc2CC1C(=O)NCc1cccc(C)c1 (stereo unspecified) 0%
COc1cc(NC(=O)Cn2c(=O)cc(C)c3c(C)nn(-c4ccc(C)cc4)c32)cc(OC)c1 -7.47%
CCOc1ccc(-c2cc3nc(C4CCN(C(=O)OC(C)(C)C)CC4)c(C(=O)Nc4cccc(CC)c4)cn3n2)cc1 1.73%
Fc1ccc(NCc2ccccc2-c2nnc(-c3ccccc3Cl)o2)cc1 -9.27%
CCSc1nc2n(n1)C(c1ccc(Cl)cc1Cl)C(C(=O)Nc1ccccc1C)=C(C)N2 (stereo unspecified) 3.24%
CC(C)(C)c1ccc(-c2nc(NC(=O)CSc3ncnc4sc5c(c34)CCCC5)ns2)cc1 -3.71%
Cc1ccc(-n2ccn(CC(=O)NCCc3ccccc3)c(=O)c2=O)cc1C 3.17%
CCCCOc1ccc(C(=O)N(Cc2ccc(N(C)C)cc2)Cc2ccco2)cc1 -8.55%
Cc1ccc(-n2ncc3c(NCc4ccccc4)ncnc32)cc1Cl 7.55%
CCc1ccc(NC(=O)CSc2nccn2-c2ccc(F)cc2)cc1 -22.3%
COc1ccc(N2CC(NC(=O)/C=C\c3ccc4c(c3)OCO4)CC2=O)cc1OC (stereo unspecified) -1.21%
COc1ccc(NC(=O)CN(C)S(=O)(=O)c2ccc3c(c2)CCCN3C(C)=O)cc1 6.96%
CCc1ccccc1NC(=O)Cn1cc(S(=O)(=O)N2CCCC2)c(S(=O)(=O)N2CCCC2)c1 7.07%
O=C(c1ccco1)N(Cc1cccnc1)c1nc2c(F)cc(F)cc2s1 -10.3%
COc1ccccc1NC(=O)CSc1nncn2c1cc1sccc12 2.05%
CCOCCCNC(=O)C(c1ccccc1)N(Cc1ccc2c(c1)OCO2)C(=O)c1ccc(NC(C)=O)cc1 (stereo unspecified) 5.79%
